In the supplement of paper PMC3334620:
In all, about 33,000 sequences were measured (“E-score (-0.5 to 0.5)”: median about -0.035, highest 2% from about 0.35 on). The list shows a part of the results.

Biological target: T1, Pdr3 (UniProt P33200)
T1 sequence: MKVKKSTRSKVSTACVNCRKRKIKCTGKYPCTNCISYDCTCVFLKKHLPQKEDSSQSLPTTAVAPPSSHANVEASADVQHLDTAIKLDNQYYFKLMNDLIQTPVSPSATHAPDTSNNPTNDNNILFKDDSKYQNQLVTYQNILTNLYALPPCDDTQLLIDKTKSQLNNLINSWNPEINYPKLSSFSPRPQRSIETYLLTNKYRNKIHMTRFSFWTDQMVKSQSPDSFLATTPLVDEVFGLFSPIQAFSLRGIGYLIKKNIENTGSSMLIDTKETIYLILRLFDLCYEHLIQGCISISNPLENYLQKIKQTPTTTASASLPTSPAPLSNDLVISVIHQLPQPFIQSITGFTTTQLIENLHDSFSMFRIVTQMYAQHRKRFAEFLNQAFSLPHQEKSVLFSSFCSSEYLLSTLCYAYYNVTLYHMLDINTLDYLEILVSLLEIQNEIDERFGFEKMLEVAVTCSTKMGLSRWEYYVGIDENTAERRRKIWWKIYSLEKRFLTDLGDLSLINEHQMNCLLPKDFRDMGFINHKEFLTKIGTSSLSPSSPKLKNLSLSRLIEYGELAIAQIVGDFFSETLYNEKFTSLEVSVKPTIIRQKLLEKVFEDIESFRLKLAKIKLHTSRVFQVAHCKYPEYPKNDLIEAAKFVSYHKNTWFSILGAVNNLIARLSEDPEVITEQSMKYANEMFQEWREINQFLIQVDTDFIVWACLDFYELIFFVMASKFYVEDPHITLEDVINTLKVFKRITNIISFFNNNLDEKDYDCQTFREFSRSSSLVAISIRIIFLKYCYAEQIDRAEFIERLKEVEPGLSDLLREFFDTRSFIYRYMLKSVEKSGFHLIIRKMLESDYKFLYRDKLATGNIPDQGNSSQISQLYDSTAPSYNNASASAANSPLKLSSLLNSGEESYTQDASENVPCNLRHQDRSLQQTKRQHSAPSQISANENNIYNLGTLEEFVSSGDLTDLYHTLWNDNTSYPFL
Experiment: PBM E-score (8-mer binding enrichment) (E-score (-0.5 to 0.5)); higher = stronger / more preferred TF binding; most listed sequences are background and not binding sites
Details: protein concentration: 200 nM; construct: GST-full length
Outline: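 Bound GST-tagged yeast transcription factors, applied at about 100-200 nM to double-stranded universal all-10-mer Agilent arrays, were detected with fluorescent anti-GST. Scans were normalised with masliner. A modified Wilcoxon-Mann-Whitney statistic, the E-score, was assigned to each ungapped eight-base word pooled with its reverse complement by the Universal PBM Analysis Suite.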

| Sequence | PBM E-score |
| --- | --- |
| ACTCGGGA | 0.285 |
| CGATCCGC | 0.353 |
| AGTATTAC | -0.0706 |
| AACGTGGC | -0.0344 |
| AACCATGA | 0.0879 |
| CAGGTTAC | -0.0365 |
| CGGAGAGA | 0.348 |
| CAGGATGG | -0.109 |
| AGGCGAAA | -0.0968 |
| TAGCGATA | -0.106 |
| GACGGGAC | 0.2 |
| GAATCCAA | 0.182 |
| AAGGAAAC | 0.0238 |
| ACCCAGTG | -0.165 |
| ACACACTA | -0.00329 |
| AATGCATT | 0.124 |
| ATCCAACG | 0.0188 |
| CTGGGCTA | 0.0113 |
| CTATTTCA | 0.152 |
| CGCCAGGA | -0.0126 |
| AGCGACGG | 0.258 |
| ACGAGCAG | -0.0922 |
| AAATCATA | 0.0935 |
| AAGCGAAC | -0.0673 |
| CGCGCTCA | 0.113 |

| Sequence | PBM E-score |
| --- | --- |
| ATACGACC | -0.14 |
| CGGGCGAA | 0.165 |
| GGGCGAAC | 0.206 |
| GTCGGTTA | 0.0723 |
| ACCGTCGT | 0.06 |
| CATCTTCC | 0.219 |
| ACATTGGC | -0.153 |
| CACCGGAC | 0.341 |
| ACGGAAGC | 0.427 |
| CACCCTGC | -0.0337 |
| GCATTCCC | 0.0305 |
| TACCTCAA | -0.0831 |
| AAGGGTCA | -0.144 |
| ATCTTCTA | -0.0919 |
| ACATACCC | -0.00671 |
| GCAAAGGA | 0.0137 |
| ATCAACTA | 0.0261 |
| ATATTCCC | 0.266 |
| GAATTGCC | 0.19 |
| AAAGCAGA | -0.0388 |
| GACCAACC | -0.064 |
| CAAGAGGA | -0.177 |
| CGCCAGCG | -0.0638 |
| TTGTGAAA | -0.0598 |
| ACATGATC | -0.127 |

| Sequence | PBM E-score |
| --- | --- |
| AAGGTTTA | -0.264 |
| GCTCTCCC | 0.00691 |
| AAAATATT | 0.162 |
| AGTGGACC | -0.129 |
| AATGGGGC | -0.158 |
| ATGTCCGA | 0.207 |
| CGATTTAA | 0.0128 |
| CATTAAAC | -0.0316 |
| CAGGGATG | -0.00152 |
| CTGTAACC | 0.116 |
| CATAAATC | 0.0877 |
| GATTTGGA | -0.0423 |
| GAGTAACA | 0.206 |
| ATTATGCA | -0.00065 |
| AAAGCATG | -0.121 |
| CCGGGAAA | 0.344 |
| GGGAGGGA | 0.217 |
| GTTGGGTA | -0.179 |
| GGAGGCTA | 0.0762 |
| CCCAAGGC | -0.188 |
| ATAATCGC | -0.0195 |
| ACATTAAG | -0.0669 |
| CCCGCCGA | 0.305 |
| ACCGGTTA | 0.22 |
| ACCACGGG | 0.205 |

| Sequence | PBM E-score |
| --- | --- |
| AATTTTAC | -0.0635 |
| GTGTTATA | -0.0501 |
| CCAAAAAG | -0.0954 |
| GCTTCGGA | 0.334 |
| GATTATGA | 0.0307 |
| CAAGTTCA | 0.175 |
| CCGTTCGA | 0.13 |
| CGCGGCTC | 0.344 |
| CTGCAGAA | 0.0135 |
| ATACAGAA | 0.125 |
| CATGGCGG | 0.261 |
| CCGTGGCG | 0.329 |
| CCTTAAAG | -0.195 |
| AGCTGGTG | 0.00678 |
| CATTTAGG | -0.239 |
| CATAACCC | -0.0023 |
| CTTGCAAA | 0.0295 |
| GAATTGTA | -0.0914 |
| AGAAACAA | 0.106 |
| CAGATGCA | -0.278 |
| AACCACGA | 0.0125 |
| CGATAGCG | 0.0636 |
| CCAGCGGA | 0.181 |
| ACTAAATA | 0.0546 |
| ACGCATGC | 0.176 |

| Sequence | PBM E-score |
| --- | --- |
| CCCTCTTA | -0.145 |
| AAGGCTTG | -0.0886 |
| CAACGTAC | -0.209 |
| CCAAATAC | -0.114 |
| ACAACACT | -0.104 |
| ACGCCGTA | -0.115 |
| GGATGTTA | 0.228 |
| CTCGGAAA | 0.372 |
| CTTGCAGA | -0.12 |
| CTATAATA | 0.0617 |
| AGGGGTAT | -0.0637 |
| CAAGCATA | -0.16 |
| GTCGCGGA | 0.314 |
| AACATAGC | 0.107 |
| GCATAGGC | -0.289 |
| CACATCCA | -0.0451 |
| CTGCGGAA | 0.357 |
| AGCGCGAA | 0.188 |
| GATATTCA | 0.0334 |
| AATTAGCT | -0.0267 |
| GCCCCCCC | -0.335 |
| CTCTCACC | 0.0689 |
| ACAGCCCT | -0.148 |
| CGACATCG | -0.0803 |
| GTTATCTA | -0.125 |

| Sequence | PBM E-score |
| --- | --- |
| GACCAGCA | -0.004 |
| AACACCGT | -0.0499 |
| TCCTTGAA | -0.149 |
| AGGGTTCG | -0.146 |
| TATTGACA | -0.147 |
| ACGGATAT | 0.305 |
| CCAGGTCC | -0.00185 |
| AGATTCGC | -0.0629 |
| ATACCACG | 0.129 |
| ATGGCGTG | -0.0122 |
| CCTAGACG | 0.012 |
| CTAATTTA | -0.142 |
| CACTGCAG | -0.0372 |
| CGTGTACA | -0.0192 |
| CACTTTAA | 0.0794 |
| ACCAAAGT | -0.0477 |
| AACCAGTG | -0.0646 |
| CGAAGCAG | -0.0376 |
| TTCCTCAA | -0.128 |
| ACAGCTGG | -0.217 |
| GTAAAAGA | -0.134 |
| GAAAGCGC | 0.0568 |
| GAACCTTC | -0.0845 |
| AGTCTCCG | 0.331 |
| GCTGCCAC | 0.0205 |

| Sequence | PBM E-score |
| --- | --- |
| AAGGACAT | -0.0885 |
| GAAAAATA | 0.0767 |
| ACTGACGA | -0.0697 |
| AGATACTC | -0.0215 |
| AACACTCA | 0.127 |
| AGGAGCCA | -0.266 |
| TGGTGGAA | -0.117 |
| ACAGGCCG | 0.117 |
| GAGTACTC | 0.0872 |
| GCAGTGTA | -0.0769 |
| ATGCCCGG | 0.318 |
| AAAATCCT | -0.137 |
| CCTGGATA | -0.186 |
| CCGCCGCG | 0.342 |
| ATCCTTTG | -0.0527 |
| ACCTTTTA | -0.138 |
| GATCGGCC | 0.116 |
| GTATGCAC | -0.134 |
| CACTTTTC | 0.117 |
| ACATCGCG | 0.0219 |
| TAAGTTAA | -0.176 |
| GATTGTGC | 0.113 |
